Test results reported in doi:10.1101/2023.09.20.558662 (bioRxiv, 2023).

Biological target: T1, KCTD5 (full-length, purified; SEC and cryo-EM samples) (human, UniProt Q9NXV2 1-234)
T1 sequence: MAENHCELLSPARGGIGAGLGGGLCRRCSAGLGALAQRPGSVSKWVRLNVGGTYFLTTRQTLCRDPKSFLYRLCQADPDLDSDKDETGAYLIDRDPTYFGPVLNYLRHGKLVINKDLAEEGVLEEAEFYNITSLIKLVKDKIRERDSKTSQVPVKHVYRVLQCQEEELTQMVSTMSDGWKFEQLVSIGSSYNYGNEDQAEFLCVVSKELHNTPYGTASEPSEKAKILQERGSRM
Assay: SEC

B1: CUL3 N-terminal domain (CUL3^NTD, […]) (domain or fragment)
chain: not shown
  stoichiometry N: 1 molar ratio
